Publication PMC4336329 (PLoS ONE, 2015)
Hit rate of the full screen: of about 310,000 compounds, about 14,000 (4.5%) showed an effect of 50% or more. The effect is printed as a negative number. The list shows a part of the results.

Each compound was assayed against human ether-à-go-go-related gene (hERG) potassium channel (human, UniProt Q12809) (assay: primary screen, population patch clamp on CHO cells stably expressing hERG).
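Also: peak tail current of the secondary pulse compared with the same well before compound.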

human ether-à-go-go-related gene (hERG) potassium channel, sequence (Q12809 whole entry, looked up): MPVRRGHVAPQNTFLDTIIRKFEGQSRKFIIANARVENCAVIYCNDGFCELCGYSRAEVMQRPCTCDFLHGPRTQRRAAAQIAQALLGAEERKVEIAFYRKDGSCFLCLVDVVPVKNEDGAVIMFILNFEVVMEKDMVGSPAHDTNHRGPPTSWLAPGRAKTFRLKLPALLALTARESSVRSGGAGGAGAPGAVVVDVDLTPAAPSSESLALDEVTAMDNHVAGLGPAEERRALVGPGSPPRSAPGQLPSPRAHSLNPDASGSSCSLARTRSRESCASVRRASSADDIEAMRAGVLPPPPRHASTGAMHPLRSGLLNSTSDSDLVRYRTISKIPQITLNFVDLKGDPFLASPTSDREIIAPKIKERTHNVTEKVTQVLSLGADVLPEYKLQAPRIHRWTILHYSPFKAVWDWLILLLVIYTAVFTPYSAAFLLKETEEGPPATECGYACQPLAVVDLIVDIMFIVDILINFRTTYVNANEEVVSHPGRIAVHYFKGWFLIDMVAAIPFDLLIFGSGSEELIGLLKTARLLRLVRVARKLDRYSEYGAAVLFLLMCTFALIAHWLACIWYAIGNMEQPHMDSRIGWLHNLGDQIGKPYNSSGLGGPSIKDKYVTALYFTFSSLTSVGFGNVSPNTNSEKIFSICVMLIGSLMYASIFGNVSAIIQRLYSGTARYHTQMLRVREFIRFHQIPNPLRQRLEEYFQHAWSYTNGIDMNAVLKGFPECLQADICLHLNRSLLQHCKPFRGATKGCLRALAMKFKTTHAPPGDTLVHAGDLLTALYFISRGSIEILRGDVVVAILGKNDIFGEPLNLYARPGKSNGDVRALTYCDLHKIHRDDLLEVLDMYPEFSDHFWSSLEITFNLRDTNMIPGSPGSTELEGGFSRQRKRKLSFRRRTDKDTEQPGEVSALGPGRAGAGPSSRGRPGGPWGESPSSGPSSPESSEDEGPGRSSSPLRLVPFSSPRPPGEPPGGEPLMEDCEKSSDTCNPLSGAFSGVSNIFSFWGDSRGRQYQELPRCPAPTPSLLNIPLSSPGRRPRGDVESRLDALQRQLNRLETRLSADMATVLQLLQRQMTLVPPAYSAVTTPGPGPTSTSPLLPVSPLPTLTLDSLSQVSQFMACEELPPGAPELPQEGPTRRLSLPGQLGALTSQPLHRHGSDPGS

Row | SMILES | hERG current change (%, negative = inhibition) at 10uM [%]
1 | CCc1ccc(C(C)NC(=O)/C=C/c2ccc(Br)cc2)cc1 (stereo not drawn) | -22.4
2 | Cc1ccc(-n2nc3ccc(NC(=O)c4ccc5c(c4)OCO5)cc3n2)cc1 | 7.8
3 | COC(C(=O)Nc1ccc(S(=O)(=O)Nc2ccc(C)c(C)c2)cc1)c1ccccc1 (stereo not drawn) | 15.3
4 | Cc1cc(NC(=O)c2ccco2)no1 | 14.9
5 | COc1ccc(-c2noc(CCC(=O)Nc3cccnc3)n2)cc1 | 14.2
6 | CCOC(=O)CC1(NC(=O)C2CCC(=O)N(CCc3ccc(OC)cc3)C2)CCCCC1 (stereo not drawn) | -17
7 | Cc1cc(C)n(-c2ncc3c(n2)N(CCO)CCOC3=O)n1 | 15.2
8 | O=C(NNS(=O)(=O)c1ccccc1)c1sccc1-n1cccc1 | -0.398
9 | CC(C)(C)OC(=O)N1CCNc2ccccc2C1 | 0.368
10 | O=C(Nc1cccc(C(F)(F)F)c1)c1ccco1 | -16.2
11 | O=C(Nc1cccnc1)Nc1ccc2c(c1)OCO2 | -20.3
12 | O=C(NCCCCNC(=O)C1CCCC1)C1CCCC1 | -15.8
13 | COC(=O)c1cc(C#N)c(Oc2cccc(C)c2C)nc1C | 18.5
14 | Cc1nn(Cc2ccccc2Cl)c(C)c1C(=O)N(C)CC(=O)Nc1cccc(F)c1 | -22
15 | Cc1cc(Nc2ccc([N+](=O)[O-])cc2)c2ccccc2n1 | -20
16 | COc1ccc(C2CC(=O)C(C=NCCN3CCN(C(C)=O)CC3)=C(O)C2)cc1 (stereo not drawn) | -1.68
17 | Cc1ccccc1-c1cc(C(=O)NCc2cccs2)n(CC2CC(c3cccnc3)=NO2)n1 (stereo not drawn) | -26.2
18 | [Cl-].c1ccc(Cn2c[n+](Cc3ccccc3)c3ccccc32)cc1 | -9.12
19 | Cc1ccc(NC(=O)c2cccc(Cl)c2)nc1 | -2.89

Row | SMILES | hERG current change (%, negative = inhibition) at 10uM [%]
20 | Cc1cc(C(=O)CSc2nnnn2-c2ccc(Cl)cc2)c(C)n1CC1CCCO1 (stereo not drawn) | 0.173
21 | Nc1nnc(C2CCCC2)s1 | 4.17
22 | CC1NC(=O)NC1CCCCCC(=O)Nc1ccc(F)c(Cl)c1 (stereo not drawn) | -27.2
23 | CCCN1C2CCCC1CC(NC(=S)NCCCOCC)C2 (stereo not drawn) | 3.1
24 | CC1(C)CC(=O)c2cc(C(=O)NCc3ccco3)c(=O)n(-c3ccccc3)c2C1 | -19.7
25 | Cc1cccc(C)c1NC(=O)COC(=O)COc1ccc2c(C)cc(=O)oc2c1 | 6.65
26 | Cc1cc(C)c2cc(C(=O)N(C)C3CCN(C)CC3)[nH]c2c1 | 5.88
27 | O=C(N/C=N/O)C1=NOC(CNc2ncc(C(F)(F)F)cc2Cl)C1 (stereo not drawn) | -18.7
28 | Cc1occc1-c1nnc(SCC(=O)Nc2nccs2)n1Cc1ccco1 | -75.4
29 | Cc1ccc2[nH]c(=O)c(CN(Cc3cccs3)Cc3nnnn3Cc3ccccc3)cc2c1 | -6.86
30 | CCN(CC)S(=O)(=O)c1ccc(N2CCN(CCO)CC2)nc1 | -3.97
31 | O=C(c1ccc(-c2nnc(Nc3ccccc3)c3ccccc23)cc1)N1C[C@H]2C[C@H](C1)c1cccc(=O)n1C2 | -10.9
32 | CCC(C)(C(=O)NC1CCCC1)N(C)C(=O)c1ccccn1 (stereo not drawn) | 1.46
33 | CC(=O)Nc1ccc(NC(=O)c2ccc(NS(=O)(=O)c3cc(C(C)(C)C)ccc3C)cc2)cc1 | 12.1
34 | COc1ccccc1NC(=O)c1ccc(-n2cccn2)nc1 | 3.91
35 | O=C(NC1CCCCC1)C(c1ccc(O)cc1)N(C(=O)c1cnccn1)c1cccc(F)c1 (stereo not drawn) | 0.986
36 | CCc1cc(=O)oc2cc3occ(-c4ccc(OC)c(F)c4)c3cc12 | 2
37 | CC(NC(N)=O)C(=O)OCC(=O)c1ccc(-c2ccccc2)cc1 (stereo not drawn) | 10.8
38 | C=CCNC(=S)N1CCN(CCN=CC2=C(O)CC(c3cccs3)CC2=O)CC1 (stereo not drawn) | -49.1

Row | SMILES | hERG current change (%, negative = inhibition) at 10uM [%]
39 | Cc1occc1C(=O)O/N=C(\N)c1ccccc1 | 10.2
40 | CC(=O)c1ccc(OCc2cc(C(=O)NC(C)c3cnn(C)c3)no2)cc1 (stereo not drawn) | -0.438
41 | COc1ccccc1N1C(=O)NC(=O)/C(=C/c2ccc([N+](=O)[O-])s2)C1=O | 14.5
42 | CN(Cc1nccn1C)C(=O)c1ccc2nc(Cc3ccccc3F)oc2c1 | -6.92
43 | COc1ccc(-c2ccc(NS(=O)(=O)c3ccc([N+](=O)[O-])cc3)cc2)nn1 | -10.9
44 | CCOC(=O)c1ccc(-n2c(=O)[nH]c3ccccc3c2=O)cc1 | 8.24
45 | COCCn1c(SCC(=O)Nc2cc(C)cc(C)c2)nnc1C(C)C | -8.18
46 | O=C1CC(c2ccccc2)CC(O)=C1C=Nc1cccc(Cl)c1 (stereo not drawn) | 1.88
47 | CC(C)CNS(=O)(=O)c1ccc(C(=O)Nc2ccc3c(c2)OCO3)cc1 | -4.52
48 | Cc1cccc(NC(=O)CCCN2C(=O)C(c3ccccc3)Oc3cccnc32)c1C (stereo not drawn) | 15.8
49 | CC(C)CCNC(=S)NC1CCCC1 | 11
50 | COc1ccccc1OCCCCNC(C)(C)C | -5.44
51 | O=c1c2ccccc2nc(-c2ccc(Cl)cc2Cl)n1O | -4.8
52 | O=c1[nH]c2cccnc2n(CCNc2ncc(C(F)(F)F)cc2Cl)c1=O | -12.1
53 | COc1ccc(Cc2nnc(SCC(=O)NCCc3ccccc3)o2)cc1 | -7.79
54 | COc1cccc(/C=N/NC(=O)c2ccoc2C)c1 | 7.5
55 | O=C(Oc1ccc(Br)cc1C(=S)N1CCCC1)c1ccccc1Cl | 14.7
56 | COc1ccc(/C(C)=N/NC(=O)Cc2c(C)nc(C)[nH]c2=O)cc1 | -0.148
57 | Cc1ccc(-c2nc3ncccc3n2O)cc1 | 12.2
